Assay results taken from PubChem BioAssay AID1460 (National Center for Advancing Translational Sciences (NCATS), 2008).
Where “and” joins values, the source holds several entries; their conditions need not be identical. Identical values can stand only once. Hit rate of the full screen: of about 270,000 compounds, about 5,800 (2.1%) were called active. Inconclusive means that the source gave no clear call. Such entries were picked first, then a sample of the others. Calls follow the shape of the dose curve; as a rule, active = well fitted inhibition curve with a large enough effect; inconclusive = small, poorly fitted or top-dose-only effect; inactive = flat fitted curve, though single readings scatter. Potencies of inconclusive entries are doubtful fits and often do not repeat.

These compounds were tested against Microtubule-associated protein tau (Homo sapiens) (UniProt P10636) (assay: qHTS for Inhibitors of Tau Fibril Formation, Thioflavin T Binding). Settings: recombinant tau K18 P301L (four-repeat tau fragment), heparin-induced fibrillization, ThT fluorescence; series mostly up to 57.4 µM; activity, negative = inhibition: at the top concentration.
Procedure, shortened: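 In this qHTS, human K18 P301L tau is incubated with compound and heparin for 6 hr at 37 C, and Thioflavin T fluorescence then reports fibril load.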
% is scaled to controls: 0 for no effect and ±100 for the full control effect; potency is read from the fitted curve at half-maximal effect; tags tell the direction and shape of the fitted curve.
Also: nearly all actives have a fitted effect of over 55% in size.

UniProt P10636, sequence (P10636 whole entry, looked up, the tested form may be a part): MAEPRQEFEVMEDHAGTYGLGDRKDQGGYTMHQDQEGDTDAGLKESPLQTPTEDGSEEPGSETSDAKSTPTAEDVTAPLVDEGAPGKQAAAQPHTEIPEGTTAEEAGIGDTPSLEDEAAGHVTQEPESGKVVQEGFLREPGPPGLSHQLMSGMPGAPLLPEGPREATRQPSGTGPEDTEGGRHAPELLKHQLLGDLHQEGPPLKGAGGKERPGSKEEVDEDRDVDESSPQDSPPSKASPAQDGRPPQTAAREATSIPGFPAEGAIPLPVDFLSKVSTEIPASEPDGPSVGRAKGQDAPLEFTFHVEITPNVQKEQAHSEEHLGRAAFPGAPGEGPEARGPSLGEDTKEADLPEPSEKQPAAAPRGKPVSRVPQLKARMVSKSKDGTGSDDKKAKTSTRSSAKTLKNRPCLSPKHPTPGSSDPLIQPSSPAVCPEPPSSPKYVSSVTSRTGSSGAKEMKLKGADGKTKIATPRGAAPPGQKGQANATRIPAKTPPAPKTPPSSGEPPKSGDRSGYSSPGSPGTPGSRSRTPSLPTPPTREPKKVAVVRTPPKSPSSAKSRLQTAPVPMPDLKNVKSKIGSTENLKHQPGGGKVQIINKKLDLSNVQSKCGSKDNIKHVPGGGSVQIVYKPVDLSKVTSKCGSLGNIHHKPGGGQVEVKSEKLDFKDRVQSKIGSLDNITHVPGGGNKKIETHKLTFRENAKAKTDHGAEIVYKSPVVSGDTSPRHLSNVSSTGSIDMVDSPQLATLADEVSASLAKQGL

Row | SMILES | Potency | activity, negative = inhibition
1 | O=C(N/N=C/c1ccc(N2CCOCC2)s1)c1ccccc1Br | inconclusive: 15.8 µM [inhibitor, partial curve] | 
2 | Oc1c(C=Nc2ccccc2Cl)[nH]c2ccccc12 | active: 39.8 µM | 
3 | COc1ccc(-c2[nH]ncc2N=Nc2cc(C)cc(C)c2)cc1 | inconclusive: 15.8 µM [inhibitor, partial curve] | 
4 | O=C(c1ccc(-c2ccccc2)cc1)c1ccc([N+](=O)[O-])cc1 |  | inactive: 0.811%
5 | Cc1nc(-c2ccc(S(=O)(=O)N3CCCN(CCc4ccccc4)CC3)s2)cs1 |  | inactive: -8.85%
6 | Cc1ccc2oc(=O)c3cnn(CC(=O)N4CCN(c5cc(Cl)ccc5C)CC4)c3c2c1 | inconclusive: 10 µM [inhibitor, partial curve] | 
7 | COc1cccc(CNc2nc3c(-c4ccccc4)nnn3c3ccccc23)c1 |  | inactive: -11.2%
8 | COc1cc(OC)c(C(=O)Nc2ccccc2-c2ccccc2)cc1OC | inconclusive: 35.5 µM [inhibitor, single point] | 
9 | COc1ccc(CCNC(=O)Cn2c(=O)n(-c3cc(OC)c(OC)c(OC)c3)c(=O)c3ccccc32)cc1OC |  | inactive: -16.5%
10 | CC(=O)Oc1ccc2c(=O)c(/C=N/c3cc(=O)[nH]c(=S)[nH]3)coc2c1 | inconclusive: 39.8 µM [inhibitor, single point] | 
11 | COC(=O)[C@@]1(Cc2ccccc2)[C@H]2c3cc(C(=O)N4CCCC4)n(Cc4ccsc4Br)c3C[C@H]2CN1C(=O)c1ccccc1 | inconclusive: 17.8 µM [inhibitor, single point] and inconclusive: 35.5 µM [inhibitor, single point] | 
12 | COc1ccc(C2=NN(C(=O)c3cccs3)C(O)(C(F)(F)F)C2)cc1 (centres undefined) | inconclusive: 11.2 µM [inhibitor, partial curve] | 
13 | O=C(CN1C(=O)S/C(=C/c2ccncc2)C1=O)N1CCOCC1 | inconclusive: 10 µM [inhibitor, single point] | 
14 | O=c1[nH]c(CN2CCN(S(=O)(=O)c3ccccc3C(F)(F)F)CC2)nc2sc3c(c12)CCCC3 | inconclusive: 10 µM [inhibitor, partial curve] | 
15 | CCCCCCSc1nc(O)c(C2OC(=O)c3c2ccc(OC)c3OC)c(=O)n1-c1ccccc1 (centres undefined) | inconclusive: 28.2 µM [inhibitor, partial curve] | 
16 | O=C(CC1NC(=O)NC1=O)Nc1ccc(Cl)cc1 (centres undefined) |  | inactive: -0.389%
17 | COC(=O)C1=C(C(=O)OC)[C@@H]2N(Cc3ccccc3)c3ccccc3[C@@]23C[C@@H](C(=O)OC)N(S(=O)(=O)c2c(C)noc2C)C3=N1 |  | inactive: -1.36% [at 11.5 µM]
18 | Cc1cc(N/N=C\c2ccccc2)nc(-c2ccccc2O)n1 | inconclusive: 2.82 µM [inhibitor, full curve] | 
19 | COc1cccc(N2C(=O)N(Cc3ccc(C#N)cc3)c3ccccc3S2(=O)=O)c1 |  | inactive: 12.6%
20 | Cc1nnc(N/N=C\c2ccc(-c3ccccc3[N+](=O)[O-])o2)n1N | active: 10 µM | 
21 | C=CCn1cc(/C=N/Nc2nc3ccccc3[nH]2)c2ccccc21 | active: 7.94 µM | 
22 | Cc1cc(C)cc(NC(=O)Nc2ccc3c(c2)N(C)C(=O)CS3)c1 |  | inactive: -11.5%
23 | Cc1ccc(NC(=S)N(Cc2ccccc2)C(C)C)cc1 |  | inactive: -10.2%

Row | SMILES | Potency | activity, negative = inhibition
24 | CCOc1ccc(-c2nc(N)ncc2Oc2ccccc2Br)c(O)c1 |  | inactive: -6.33%
25 | Cc1ccc(Cl)c(NC(=O)Nc2csc3c2CCCC3)c1 | inconclusive: 0.447 µM [inhibitor, full curve] | 
26 | O=C(NC(=S)Nc1ccc(Cc2ccncc2)cc1)c1ccccc1Cl |  | inactive: -6.74%
27 | CC(=O)Nc1ccc2nc(C)n(Cc3ccc(Cl)cc3)c(=O)c2c1 |  | inactive: -7.65%
28 | COc1ccccc1OCCNc1cc(N2CCOCC2)ccc1[N+](=O)[O-] | active: 14.1 µM | 
29 | COc1cc(C2CC(=O)Oc3ccc(C(C)(C)C)cc32)cc(OC)c1OC (centres undefined) | inconclusive: 56.2 µM [inhibitor, partial curve, poor fit] | 
30 | CCOC(=O)c1cc(-c2ccc3c(c2)OCCO3)n[nH]1 | inconclusive: 39.8 µM [inhibitor, single point] | 
31 | CCc1ccc(NC(=O)C(=O)NCC(c2ccc3c(c2)OCO3)N2CCOCC2)cc1 (centres undefined) |  | inactive: -0.257%
32 | N#CC1=C2SCC(O)(c3ccccc3)N2C(=O)CC1c1ccccc1 (centres undefined) | inconclusive: 17.8 µM [inhibitor, single point] | 
33 | O=C(NCc1ccccc1)C1=C[C@H](c2ccc(C(F)(F)F)cc2)C[C@H](OCc2ccc(CO)cc2)O1 |  | inactive: -8.44%
34 | O=C1CC(C(=O)Nc2cccc(Cl)c2)n2ncnc2N1 (centres undefined) |  | inactive: -0.352%
35 | O=C(NCc1ccco1)C12CN(Cc3ccccc3)CC1C(c1ccc([N+](=O)[O-])cc1)=NO2 (centres undefined) | inconclusive: 25.1 µM [inhibitor, single point] | 
36 | N#CC(=C=[N-])c1nc2ccccc2nc1-[n+]1cccc(NC(=O)c2ccccc2)c1 | inconclusive: 1 µM [inhibitor, full curve] and inconclusive: 12.6 µM [inhibitor, partial curve] | 
37 | COc1cc(/C=C/C(=O)OCC(=O)N2CC3(C)CC2CC(C)(C)C3)ccc1O (centres undefined) | inconclusive: 31.6 µM [inhibitor, single point] | 
38 | Cc1cc(Cl)ccc1OCC(=O)Nc1nc(-c2cccs2)cs1 | inconclusive: 15.8 µM [inhibitor, partial curve] | 
39 | N#CC(C#N)=C(Nc1ccc(F)cc1)SCc1cccc(F)c1 | inconclusive: 25.1 µM [inhibitor, single point] | 
40 | Cc1ccc(C)c(CSc2cn(CC(=O)N3CCCCCC3)c3ccccc23)c1 | inconclusive: 3.55 µM [inhibitor, full curve, poor fit] | 
41 | Cc1cccc(NC(=O)c2sc3nc(-c4ccc(F)cc4)cn3c2C)n1 | inconclusive: 0.631 µM [inhibitor, full curve] | 
42 | COC(c1ccccc1Br)C(C)/C=C/CCO (centres undefined) |  | inactive: 4.17% [at 11.5 µM]
43 | Cc1ccccc1OCC(=O)N/N=C1\CCOc2c(C)cccc21 | inconclusive: 2.51 µM [inhibitor, full curve] | 
44 | COc1cccc(C(=O)Nc2ccc(-c3nc4ccccc4s3)cc2Cl)c1 | inconclusive: 0.501 µM [inhibitor, full curve, poor fit] | 
45 | CC(=O)CSc1ncnc2c1oc1ccccc12 |  | inactive: -2.92%
46 | CN(C)/C=C/C(=O)c1nn(-c2ccc(F)cc2)ccc1=O |  | inactive: -11.6%

Row | SMILES | Potency | activity, negative = inhibition
47 | C/C(=N\N(C)C)C1=C(O)c2ccccc2C1=O |  | inactive: -0.991%
48 | COCCCNc1nc2ccccc2nc1NS(=O)(=O)c1ccc(C)cc1C | inconclusive: 28.2 µM [inhibitor, partial curve, poor fit] | 
49 | COc1ccc(C(=O)/C=C/c2cn(CC(O)CN(CC(C)C)CC(C)C)c3ccccc23)cc1 (centres undefined) | inconclusive: 7.08 µM [inhibitor, partial curve] | 
50 | COc1ccc2c(c1)C(=O)[C@@H](OC(=O)Nc1ccc(C)c(Br)c1)[C@H](c1ccc(OC)c(Br)c1)O2 |  | inactive: -7.01%
51 | O=C(O)c1c(-c2ccccc2)oc2ccc(OCc3ccc(Cl)c(Cl)c3)cc12 | inconclusive: 39.8 µM [activator, single point] | 
52 | COc1cc(/C=N/Nc2ccccc2)ccc1OC(=O)c1cccs1 |  | inactive: 2.31%
53 | Cc1ccccc1-n1nnnc1SC(C)C(=O)NC1CCCc2ccccc21 (centres undefined) | inconclusive: 39.8 µM [inhibitor, single point] | 
54 | CO[C@H]1COC(=O)[C@@H](C)COC(=O)[C@@H](Cc2ccccc2)NC(=O)C/C=C\[C@H]1C |  | inactive: -3.61% [at 11.5 µM]
55 | COc1ccc(-n2nc([N+](=O)[O-])c(=NCCc3ccc(Cl)cc3)n2O)cc1 | inconclusive: 6.31 µM [inhibitor, partial curve] | 
56 | CCOc1cc(CNc2ccc(C(=O)O)cc2)ccc1OCc1ccccc1 | inconclusive: 35.5 µM [inhibitor, partial curve] | 
57 | CN(C)c1nc(C=C(C#N)C#N)c(Cl)n1-c1ccc(F)cc1 | active: 14.1 µM | 
58 | CCN1CCOC(CC(=O)Nc2cccc([N+](=O)[O-])c2)C1=O (centres undefined) | inconclusive: 11.2 µM [inhibitor, partial curve] | 
59 | CCCCCCC(=O)Nc1cc2c(C)cc(=O)oc2cc1C |  | inactive: -16.8%
60 | CCN1CCc2c(sc(N)c2C(N)=O)C1 | inconclusive: 35.5 µM [inhibitor, single point] | 
61 | N#C/C(=C\c1ccncc1)c1nc2ccccc2c(=O)[nH]1 | inconclusive: 12.6 µM [inhibitor, partial curve] | 
62 | CCOc1ccc(OCc2cccc(C(=O)N/N=C/c3cccnc3)c2)cc1 | inconclusive: 17.8 µM [inhibitor, single point] | 
63 | COc1ccc(OC)c(C2NC(=O)c3sc(=S)n(-c4ccccc4)c3N2)c1 (centres undefined) |  | inactive: -6.67%
64 | Cc1c(N2C(=O)CS/C2=N\N=C\c2ccc(Br)cc2)c(=O)n(-c2ccccc2)n1C |  | inactive: -17.9%
65 | COC(=O)[C@@]1(Cc2ccccc2)[C@H]2c3cc(C(=O)N4CCCC4)n(Cc4ccc(C(F)(F)F)nc4)c3C[C@H]2CN1C(=O)c1ccccc1 | inconclusive: 39.8 µM [inhibitor, single point] | 
66 | CCn1c(SCC(=O)N/N=C/C(C)=C/c2ccco2)nnc1-c1ccccc1 | inconclusive: 25.1 µM [inhibitor, single point] | 
67 | COc1ccc(-c2c[n+](CC(=O)OC3CC(C)CCC3C(C)C)c3n2CCC3)cc1 (centres undefined) | inconclusive: 0.501 µM [inhibitor, partial curve] | 
68 | O=S(=O)(Nc1cc(Sc2cccc3cccnc23)c(O)c2ccccc12)c1ccccc1 | active: 15.8 µM | 
69 | COc1ccc(C(=O)/C=C/Nc2cc(C)on2)cc1 | inconclusive: 1.41 µM [inhibitor, full curve] | 
